{"source": "PubChem BioAssay AID493208", "about": "(National Center for Advancing Translational Sciences (NCATS), 2011)", "note": "In all, about 44,000 compounds went through this assay and about 340 (0.77%) were called active. Inconclusive results (about 5%) are left out. Calls follow the shape of the dose curve; as a rule, active = well fitted inhibition curve with a large enough effect; inconclusive = small, poorly fitted or top-dose-only effect; inactive = flat fitted curve, though single readings scatter. The list shows a part of the results. Potency is read from the fitted curve at half-maximal effect."}
{"test": "Acumen qHTS Assay for Inhibitors of the mTORC1 Signaling Pathway in MEF (Tsc2-/-, p53-/-) Cells: Sytravon; also: nearly all actives have a fitted effect of over 50% in size;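 as to activity change, negative = inhibition: plate controls were DMSO for no effect and rapamycin for full effect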", "conditions": "phospho-rpS6 immunofluorescence/PI, 24 h; series mostly up to 38.3 µM; activity change, negative = inhibition: at the top concentration", "in_short": "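Tsc2-/-, p53-/- mouse embryonic fibroblasts (empty-vector line) exposed to compound 24 hrs at 37 C, fixed, immunostained for phospho-rpS6 and counterstained with propidium iodide. Acumen laser scanning gives % positive cells from Alexa 488/PI ratio, thresholded using 7.5 nM rapamycin; PI count gives viability.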"}
{"smiles": "COc1ccc(CNC(=O)c2cnn3c(C)c(Cc4c(F)cccc4Cl)c(C)nc23)cc1", "activity change, negative = inhibition": "inactive: 6.17%"}
{"smiles": "Cc1ccc(N2CC(NC(=O)c3cccc(Cl)c3)CC2=O)cc1C", "note": "(stereo not drawn)", "activity change, negative = inhibition": "inactive: -4.1%"}
{"smiles": "Cc1cccc(N2CCN(C(=O)c3cnc(N4CCCC4)nc3C)CC2)c1C", "activity change, negative = inhibition": "inactive: 16.2%"}
{"smiles": "COc1ccc(C2c3c(n(C)c4ccccc34)C(=O)N2CC(=O)Nc2cccc(Cl)c2C)cc1", "note": "(stereo not drawn)", "activity change, negative = inhibition": "inactive: -0.148%"}
{"smiles": "CC1CCCN(C(=O)Cn2ncc3c([nH]c4ccccc43)c2=O)C1", "note": "(stereo not drawn)", "activity change, negative = inhibition": "inactive: -1.1%"}
{"smiles": "CCc1ccccc1Nc1sc(C(=O)c2cccc(OC)c2)c(N)c1S(=O)(=O)c1ccccc1", "activity change, negative = inhibition": "inactive: -6.35%"}
{"smiles": "COC(=O)c1c(NC(=O)/C(C#N)=C/c2ccccc2)sc2c1C(C(=O)OC)CC2", "note": "(stereo not drawn)", "activity change, negative = inhibition": "inactive: 4.36%"}
{"smiles": "CCCCOc1ccc(C(=O)NCc2nnnn2-c2ccc(C)c(C)c2)cc1", "activity change, negative = inhibition": "inactive: 9.64%"}
{"smiles": "CCc1ccccc1NC(=O)Cn1c(=O)ccc2cc(S(=O)(=O)N3CCCC3)ccc21", "activity change, negative = inhibition": "inactive: 1.66%"}
{"smiles": "CCCSc1ncc(Cl)c(C(=O)N(Cc2ccc(Cl)cc2)Cc2ccco2)n1", "activity change, negative = inhibition": "inactive: -8.5%"}
{"smiles": "CCOC(=O)N1CCc2c(sc3c2c(=O)n(-c2ccc(CC)cc2)c(=O)n3C)C1", "activity change, negative = inhibition": "inactive: -14.4%"}
{"smiles": "COc1ccc(OCc2ccc(-c3nc(C#N)c(N4CCCCC4)o3)o2)cc1", "activity change, negative = inhibition": "inactive: -16%"}
{"smiles": "Cc1ccccc1OCC(=O)N1CCC(c2nc3ccccc3s2)CC1", "activity change, negative = inhibition": "inactive: -0.64%"}
{"smiles": "COc1ccc(C(=O)c2c(N)c(C(=O)Nc3cccc(OC)c3)c3ccccn23)cc1", "activity change, negative = inhibition": "inactive: -3.35%"}
{"smiles": "Cc1c(C(=O)N(C)C)sc2c1c(=O)n(-c1ccc(Cl)cc1)c(=O)n2CC(=O)C(C)(C)C", "activity change, negative = inhibition": "inactive: 2.66%"}
{"smiles": "COc1ccc(-n2c(=O)c3sc4ccccc4c3n(Cc3ccccc3C)c2=O)cc1OC", "activity change, negative = inhibition": "inactive: -11.6%"}
{"smiles": "Cc1ccc(NC(=O)Cn2nc(N3CCN(c4ccccc4)CC3)ccc2=O)cc1F", "activity change, negative = inhibition": "inactive: 5.23%"}
{"smiles": "COc1ccc(S(=O)(=O)N2Cc3ccccc3CC2C(=O)Nc2ccc(C)cc2C)cc1OC", "note": "(stereo not drawn)", "activity change, negative = inhibition": "inactive: 1.61%"}
{"smiles": "CCOC(=O)c1c(C)[nH]c(C)c1S(=O)(=O)N1CCC(C(=O)NCc2cccc(OC)c2)CC1", "activity change, negative = inhibition": "inactive: 2.45%"}
{"smiles": "CCC1CCCCN1S(=O)(=O)c1cc2c3c(c1)CC(=O)N3CCC2", "note": "(stereo not drawn)", "activity change, negative = inhibition": "inactive: 0.872%"}
{"smiles": "CCC(C(=O)O)n1ccc2cc(S(=O)(=O)N3CCCCC3)ccc21", "note": "(stereo not drawn)", "activity change, negative = inhibition": "inactive: -0.352%"}
{"smiles": "Cc1ccc(N2CCN(C(=O)C3CCN(S(=O)(=O)c4ccc5c(c4)oc(=O)n5C)CC3)CC2C)cc1", "note": "(stereo not drawn)", "activity change, negative = inhibition": "inactive: -11.1%"}
{"smiles": "O=c1c2sc3ccccc3c2n(Cc2cccc(Cl)c2)c(=O)n1Cc1ccco1", "activity change, negative = inhibition": "inactive: -18.6%"}
{"smiles": "CC(=O)c1ccc(NC(=O)CCc2c(C)nn(-c3ccc(N4CCOCC4)nn3)c2C)cc1", "activity change, negative = inhibition": "inactive: -0.682%"}
{"smiles": "Cc1cc(C)c(S(=O)(=O)NCCc2cc3ccc(C)c(C)c3[nH]c2=O)c(C)c1", "activity change, negative = inhibition": "inactive: -16.9%"}
{"smiles": "COc1ccc(-c2noc(-c3ccc(NCc4cccnc4)c([N+](=O)[O-])c3)n2)cc1OC", "activity change, negative = inhibition": "inactive: -0.555%"}
{"smiles": "Cc1cc(NC(=O)c2cc(-c3cccc(Cl)c3)on2)n(-c2ccccc2)n1", "activity change, negative = inhibition": "inactive: 5.39%"}
{"smiles": "Cc1ccccc1OCCn1c(=N)n(C(C)C)c2ccccc21", "Potency": "active: 18.5 µM"}
{"smiles": "Cc1cc(C)cc(-n2c(C)nc3cc(C(=O)O)ccc32)c1", "activity change, negative = inhibition": "inactive: -1.38%"}
{"smiles": "CCOc1ccc(C2=CC(c3cccc(Br)c3)n3c(nc4ccccc43)N2)cc1Cl", "note": "(stereo not drawn)", "activity change, negative = inhibition": "inactive: -7.09%"}
{"smiles": "Cc1cccc(OCc2nc(CC(=O)Nc3ccc(C)c(C)c3)cs2)c1", "activity change, negative = inhibition": "inactive: -16.8%"}
{"smiles": "CCCn1c(CN2CCN(c3ccc(OC)cc3)CC2)nc2c1c(=O)[nH]c(=O)n2C", "activity change, negative = inhibition": "inactive: -0.748%"}
{"smiles": "COc1cc(-c2cc3n(C)c(C)c(CCC(=O)O)c(=O)n3n2)cc(OC)c1OC", "activity change, negative = inhibition": "inactive: -6.76%"}
{"smiles": "CCOc1ccc(NC(=O)C2CCN(C(=O)N3CC(C)Oc4ccc(Cl)cc43)CC2)cc1", "note": "(stereo not drawn)", "activity change, negative = inhibition": "inactive: 0%"}
{"smiles": "CC(C)CC(=O)Nc1nnc(S(=O)(=O)N(CC(C)C)c2ccccc2)s1", "activity change, negative = inhibition": "inactive: 0%"}
{"smiles": "Cc1cc2oc(C(=O)Nc3ccc(S(=O)(=O)N(C)Cc4ccccc4)cc3)cc(=O)c2cc1C", "activity change, negative = inhibition": "inactive: -5.49%"}
{"smiles": "Cc1ccc(CNC(=O)CCC(=O)N2CC3CCCN3c3ccccc32)cc1", "note": "(stereo not drawn)", "activity change, negative = inhibition": "inactive: -14.9%"}
{"smiles": "O=C(Nc1ccc2oc(-c3cc(Br)ccc3Cl)nc2c1)c1cc2ccccc2o1", "Potency": "active: 4.14 µM"}
{"smiles": "CCc1ccccc1N1CC(c2nc3ccccc3n2CCCOc2ccc(Cl)cc2)CC1=O", "note": "(stereo not drawn)", "activity change, negative = inhibition": "inactive: 0.902%"}
{"smiles": "COc1ccccc1CNC(=O)c1cc2cc3ccc(Cl)cc3nc2o1", "activity change, negative = inhibition": "inactive: 0.531%"}
{"smiles": "COc1ccc(CCNC(=O)CCc2c(C)nc3c(c(C)nn3-c3ccc(C)c(C)c3)c2C)cc1OC", "activity change, negative = inhibition": "inactive: 1.8%"}
{"smiles": "COc1cc(OC)c(NC(=O)c2csc3c2CCC(C)C3)cc1Cl", "note": "(stereo not drawn)", "activity change, negative = inhibition": "inactive: -3.04%"}
{"smiles": "COc1ccccc1N1CCN(c2ccc(NC(=O)c3ccc(C)cc3)cc2C(=O)O)CC1", "activity change, negative = inhibition": "inactive: 0.441%"}
{"smiles": "Cc1ccc(NC(=O)CCCn2c(=O)c3cccn3c3ccccc32)c(Cl)c1", "activity change, negative = inhibition": "inactive: 8.58%"}
{"smiles": "Cc1c(CNC2CCCCC2)c(C(=O)O)c(C)n1Cc1c(F)cccc1Cl", "activity change, negative = inhibition": "inactive: 2.57%"}
{"smiles": "COc1ccccc1OCCSc1nc(-c2ccc(C(C)(C)C)cc2)nc2cc(=O)[nH]n12", "activity change, negative = inhibition": "inactive: 4.6%"}
{"smiles": "Cc1ccc(CNC(=O)Cn2cc(S(=O)(=O)Cc3ccccc3Cl)c3ccccc32)cc1", "activity change, negative = inhibition": "inactive: -2.34%"}
{"smiles": "CCOc1ccc(NC(=O)C(CC)n2c(=O)c(-c3ccccc3NC(C)=O)nc3ccccc32)cc1", "note": "(stereo not drawn)", "activity change, negative = inhibition": "inactive: -7.03%"}
